Data as given in PMC4336329 (PLoS ONE, 2015).
Among all 310,000 compounds or so, about 2,200 (0.71%) showed an effect of 50% or more. Effects have a minus sign here. Some of the results follow.

target: human ether-à-go-go-related gene (hERG) potassium channel (human, UniProt Q12809); test: primary screen, population patch clamp on CHO cells stably expressing hERG
Sequence (Q12809 whole entry, looked up): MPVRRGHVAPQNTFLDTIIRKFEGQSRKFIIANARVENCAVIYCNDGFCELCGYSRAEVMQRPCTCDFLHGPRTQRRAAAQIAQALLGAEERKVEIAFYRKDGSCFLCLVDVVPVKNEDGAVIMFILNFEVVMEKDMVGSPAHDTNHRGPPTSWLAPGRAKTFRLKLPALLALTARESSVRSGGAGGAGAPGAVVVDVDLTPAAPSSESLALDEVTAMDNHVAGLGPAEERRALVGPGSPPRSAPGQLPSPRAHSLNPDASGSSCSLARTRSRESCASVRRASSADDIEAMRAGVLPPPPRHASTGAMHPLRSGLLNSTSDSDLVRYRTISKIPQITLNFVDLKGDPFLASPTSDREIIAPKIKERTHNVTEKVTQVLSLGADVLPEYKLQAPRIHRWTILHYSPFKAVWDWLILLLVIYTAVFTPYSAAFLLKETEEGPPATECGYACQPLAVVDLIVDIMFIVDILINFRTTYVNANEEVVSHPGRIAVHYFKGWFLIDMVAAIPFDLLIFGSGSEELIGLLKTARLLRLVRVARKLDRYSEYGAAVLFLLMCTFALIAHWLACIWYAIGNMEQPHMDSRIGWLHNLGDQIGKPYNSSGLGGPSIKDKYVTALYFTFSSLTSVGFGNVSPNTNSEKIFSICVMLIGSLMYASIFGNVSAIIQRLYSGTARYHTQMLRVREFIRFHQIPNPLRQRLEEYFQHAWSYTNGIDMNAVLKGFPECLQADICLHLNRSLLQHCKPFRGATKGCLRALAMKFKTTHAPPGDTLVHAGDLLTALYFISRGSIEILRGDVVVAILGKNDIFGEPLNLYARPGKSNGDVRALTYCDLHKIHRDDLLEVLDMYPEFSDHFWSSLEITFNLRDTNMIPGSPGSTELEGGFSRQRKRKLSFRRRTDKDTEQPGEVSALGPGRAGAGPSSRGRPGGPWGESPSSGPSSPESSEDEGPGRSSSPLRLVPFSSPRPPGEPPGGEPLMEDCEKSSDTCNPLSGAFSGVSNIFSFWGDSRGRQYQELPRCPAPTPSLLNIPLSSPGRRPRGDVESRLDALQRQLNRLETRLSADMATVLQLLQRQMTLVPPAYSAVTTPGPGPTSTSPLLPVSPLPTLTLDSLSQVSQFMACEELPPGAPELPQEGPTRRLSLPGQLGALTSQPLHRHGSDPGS

Structure (SMILES) | hERG current change (%, negative = inhibition) at 1uM [%]
Cc1cc(N2CCC(C)CC2)nc(NCc2ccccc2)n1 | 3.24
CCCn1c(=O)n(C)c(=O)c2c(SCC(=O)NCC(c3ccccc3)N(C)C)nc(CC(C)C)nc21 (stereo not drawn) | -5.52
NC(=O)C1CCN(CC(=O)Nc2ccc(S(=O)(=O)N3CCOCC3)cc2)CC1 | 19.5
NNC(=S)NCc1ccc2c(c1)OCO2 | 14.7
CC(N1CCOC1=O)S(=O)(=O)c1ccccc1 (stereo not drawn) | 2.12
Cc1ccc(C2(C(F)(F)F)N=C3Sc4cc(C)cc(C)c4N3C(=O)N2)cc1 (stereo not drawn) | 4.33
C/C(=N/O)c1ccc(N2C(=O)C3C4C=CC(C3C2=O)C2C3C(=O)N(c5ccc(/C(C)=N/O)cc5)C(=O)C3C42)cc1 (stereo not drawn) | 3.94
Cc1cccc(Oc2nc(-c3ccccc3)cc(C)c2S(C)(=O)=O)c1C | 3.44
Cc1c(-c2cccc(Cl)c2)nc2ccccc2c1C(=O)OCC(=O)N(C)C1CCS(=O)(=O)C1 (stereo not drawn) | 4.41
O=C(NCCS(=O)(=O)NC1CCCCC1)c1ccc2c(c1)OCO2 | 2.98
CCCCP(=O)(CCCC)c1ccccc1C(=O)O | 6.45
CCn1cc(C(=O)N2CCN(c3ccc([N+](=O)[O-])cc3)CC2)c(=O)c2ccc(C)nc21 | -42.1
Cc1cccc(NC(=O)CCC(=O)N/N=C/c2ccc(O)cc2O)c1 | 12.8
O=C(CSc1nccc(=O)[nH]1)NCc1ccco1 | 9.54
O=C1CN(c2nc(-c3ccccc3)c3cc(Cl)ccc3n2)c2ccccc2N1 | 14.6
O=C(O)c1ccccc1S(=O)(=O)CC(=O)N1CCCCC1 | 14.3
C=CCNC(=O)c1sc(=S)n(-c2ccc(C(=O)OCC)cc2)c1N | 2.24
COc1ccc(Cn2c(O)c(C=Nc3ccccc3C(=O)O)c3ccccc3c2=O)cc1 | 8.05
COc1ccc(CNc2n[nH]c(NCc3ccc(OC)c(OC)c3)n2)cc1OC | -4.9
CCn1c(=O)cc(OCC(=O)NCc2ccc(C)o2)c2ccccc21 | -2.75
O=C(CN1CCOCC1)N1c2ccccc2Sc2ccccc21 | 11.6
CCN(c1ccccc1)S(=O)(=O)c1ccc2[nH]cc(C(=O)NCCOC)c(=O)c2c1 | 11.1
CCOC(=O)c1c(S(=O)(=O)N2c3ccccc3CC2C)c(C)n(C)c1C (stereo not drawn) | 16.4

Structure (SMILES) | hERG current change (%, negative = inhibition) at 1uM [%]
CC(=O)c1cn(CCC(C)C)c(=O)[nH]c1=O | -3.77
CCc1cc(C(=O)N2CCN(S(=O)(=O)c3ccccc3F)CC2)sc1C | 3.45
COc1ccc(C(=O)CSc2n[nH]c(C)n2)cc1[N+](=O)[O-] | 13.9
CCN(CC)CCNC(=O)c1ccc(NC(=O)COc2ccc3c(c2)CCC3)cc1 | -0.13
COCCSc1ccccc1C(=O)NCCc1ccccc1 | 4.68
COc1ccc2c(c1)OC(O)(C(F)(F)F)CC2=O (stereo not drawn) | 0.384
O=C1Cc2cccc3cccc1c23 | 14.2
Cc1sc2ncnc(NCC(c3ccccc3)N(C)C)c2c1C (stereo not drawn) | 3.88
Cc1ccc(N2CC(O)(c3cccs3)[N+]3=C2CCCC3)cc1.[Br-] (stereo not drawn) | 0.544
S=c1nc[nH]c2c1cnn2-c1ccccc1 | 14
COc1ccc(CNC(=S)NCc2ccc(OC(C)C)cc2)cc1 | 1.35
COc1ccc(C(CC(=O)N2CCCC2)C(C)C)cc1 (stereo not drawn) | 6.31
COc1cc2[nH]c(=S)n(Cc3ccco3)c(=O)c2cc1OC | -1.66
CCCCCCCN(C(=O)CCl)c1cccc(C)c1 | 1.25
Nc1nc(NCc2ccccc2)nc(NCCO)c1[N+](=O)[O-] | 8.3
O=C(c1ccco1)n1c(=S)nc2ccccn21 | 24.1
C[C@H](NC(=O)C(c1ccccc1)c1ccccc1)c1ccccc1 | 5.44
Cc1ccc(/C=N/NC(=O)c2ccc3ccccc3c2)s1 | 14.3
CCN(CC)C1CCS(=O)(=O)C1.Cl (stereo not drawn) | 7.34
COCCNC(=O)Cn1nc(C(F)(F)F)c(Cl)c1C | -3.69
Cc1ccsc1-c1nc(C(N)=O)c2[nH]c(=O)n(-c3ccc(Cl)cc3)c2n1 | 9.02
Cl.N=C(N)N1CCc2ccccc21 | 5.53
